Laboratory results taken from the supplement of paper PMC3334620.
The full ranking holds about 33,000 sequences; the median of “E-score (-0.5 to 0.5)” is about -0.036, and the highest 2% start at about 0.37. The list shows a part of the results.

target: T1, Yer064c (UniProt P40041); assay: PBM E-score (8-mer binding enrichment) (E-score (-0.5 to 0.5)); higher = stronger / more preferred TF binding; most listed sequences are background and not binding sites; settings: protein concentration: 200 nM; construct: GST-full length
T1 sequence: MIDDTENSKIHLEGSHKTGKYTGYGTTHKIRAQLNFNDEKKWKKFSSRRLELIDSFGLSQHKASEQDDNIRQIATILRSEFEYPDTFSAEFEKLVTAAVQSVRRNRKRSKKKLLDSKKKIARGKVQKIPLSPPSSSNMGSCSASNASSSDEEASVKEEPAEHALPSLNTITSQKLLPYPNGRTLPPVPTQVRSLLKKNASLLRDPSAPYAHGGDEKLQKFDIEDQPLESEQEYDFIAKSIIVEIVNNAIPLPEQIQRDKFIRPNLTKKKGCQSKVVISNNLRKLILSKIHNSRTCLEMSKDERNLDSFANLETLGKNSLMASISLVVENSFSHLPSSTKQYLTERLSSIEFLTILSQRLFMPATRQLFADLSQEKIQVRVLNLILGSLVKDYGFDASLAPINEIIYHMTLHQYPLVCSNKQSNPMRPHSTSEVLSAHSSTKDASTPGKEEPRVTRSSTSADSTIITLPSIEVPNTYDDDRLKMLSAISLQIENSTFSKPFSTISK
In short: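 Yeast transcription factors carrying a GST tag, as full-length proteins or DNA-binding domains, were produced by PURExpress in vitro transcription/translation. About 100-200 nM protein was applied to universal all-10-mer Agilent arrays, double-stranded by primer extension on fresh or once-stripped slides. Bound protein was detected with fluorescent anti-GST, and scans were normalised with masliner. The Universal PBM Analysis Suite gave each ungapped eight-base word, pooled with its reverse complement, an E-score, a modified Wilcoxon-Mann-Whitney statistic.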

Row | Sequence | PBM E-score
1 | ATGCCAGA | -0.0495
2 | GCTTCCAC | -0.26
3 | AGTTGGCC | -0.0513
4 | CATTCAAC | 0.0337
5 | ATTAGATG | 0.209
6 | TTAAAGAA | 0.163
7 | TAAGGGAA | -0.114
8 | CATCCGGC | -0.0312
9 | CCTCGGCC | -0.254
10 | ACACCCAC | 0.173
11 | CGTTATAC | -0.0567
12 | AGTAACTA | 0.13
13 | CAAATAAG | -0.106
14 | AGAACCGC | 0.00146
15 | AGACACTC | 0.0733
16 | CTTAGTCC | 0.37
17 | TCACTAGA | 0.178
18 | CGTGTGGA | -0.182
19 | TACCGCTA | -0.042
20 | TAGCCGAA | -0.146
21 | CAGTAATG | 0.0306
22 | AACCCGTC | -0.26
23 | GCAGTAAC | -0.0264
24 | GTCGCCGA | 0.038
25 | ATACTCTA | -0.0299

Row | Sequence | PBM E-score
26 | GAGACACA | 0.288
27 | AAAAACTA | 0.0388
28 | ACTTCAAC | 0.148
29 | AGCGACAG | -0.0959
30 | AGCATGGA | 0.0438
31 | CAAAATAG | -0.15
32 | AAAAGTCT | 0.0759
33 | CATCAAGA | 0.155
34 | AACGTAAC | -0.0565
35 | TGAATACA | 0.158
36 | CAGACCTC | -0.0957
37 | ACTCCCTG | 0.19
38 | GGGGGCAA | -0.298
39 | ATATATCG | 0.0218
40 | AAGTCGTA | 0.328
41 | AGTCAACA | 0.441
42 | CAGGGCAA | -0.259
43 | GTACAATA | 0.138
44 | TACGGCGA | -0.108
45 | AGAGCATC | -0.249
46 | GGCGGCGA | -0.0567
47 | CCTATAAC | -0.0802
48 | CCGAGTAC | 0.0527
49 | ACTTGGCT | 0.0244
50 | AGCTATTC | -0.234

Row | Sequence | PBM E-score
51 | CACCCGAG | -0.0236
52 | CTAACAGA | 0.0844
53 | GGCGCTCA | -0.243
54 | GATCTCCC | -0.11
55 | ATGCAGTC | 0.353
56 | ACAACAAT | 0.0493
57 | AATAAAGG | -0.0751
58 | TGAGTTAA | 0.255
59 | AGCTCCTG | -0.136
60 | AGAAGCCG | -0.309
61 | AGGGCACC | -0.29
62 | CCCAAGAG | -0.22
63 | AGCGACTC | 0.412
64 | GTGGTGTA | 0.0407
65 | GCTAGTCA | 0.448
66 | GGTGAAAA | -0.106
67 | CGCAGAGA | 0.0744
68 | AATAAATA | 0.134
69 | CCGACGTC | -0.00888
70 | TAGAGATA | -0.0157
71 | CATACTAA | 0.13
72 | CTGGGCAC | -0.357
73 | CTATTCTC | -0.0442
74 | ACTGATAA | 0.273
75 | ACTCCTCT | 0.0906

Row | Sequence | PBM E-score
76 | ATCTGTCC | -0.0579
77 | AAGGAAAT | -0.0411
78 | CGGCTTAC | -0.147
79 | GTGCCGAA | -0.243
80 | AGGCAGGA | -0.176
81 | CGCAGCAG | -0.14
82 | AGTTGTAC | 0.0368
83 | CGAGAGTC | 0.421
84 | AAGAACAG | -0.0508
85 | CCATGGAG | 0.0468
86 | CAAAGAAG | 0.0417
87 | GACAGCAC | -0.013
88 | AGCGGGTC | -0.0869
89 | GACAGAAA | 0.147
90 | CTCACGAA | 0.148
91 | AGGAGGGG | -0.0612
92 | GCACATTA | -0.122
93 | AACTCGCA | 0.0388
94 | AAATTGAA | 0.139
95 | AAGAGAAC | -0.0303
96 | CCTAGCCA | -0.0871
97 | ATATGGGA | -0.0175
98 | GATACTCC | -0.147
99 | AGCGAATC | 0.219
100 | CAGTATAA | -0.0651

Row | Sequence | PBM E-score
101 | AAACAGTC | 0.333
102 | GCCTAGAC | -0.121
103 | CGAGTCGA | 0.271
104 | TCGTTTCA | 0.158
105 | ACATTGCC | -0.0958
106 | CGGGAGAG | -0.064
107 | GATACCAA | -0.154
108 | CTTGACGA | 0.00106
109 | CATCGCGC | 0.118
110 | AATAATAG | -0.0916
111 | CTCGCAAC | 0.0701
112 | GCCTACGC | -0.193
113 | CAAAAAAG | 0.0403
114 | ACGTGGTA | -0.183
115 | AAAGTATG | -0.0222
116 | CCCACGCA | -0.0558
117 | ATTAATCC | 0.256
118 | TCTGCTAA | -0.0505
119 | AGTTAATG | 0.16
120 | ACGTGGTC | -0.0273
121 | CTTGCTAC | -0.214
122 | ACTGGATA | 0.145
123 | AACCCCGT | -0.0415
124 | ACACTTAA | 0.136
125 | ATGTAGGG | -0.295

Row | Sequence | PBM E-score
126 | AGGAACCC | -0.318
127 | CCTATTTA | -0.143
128 | ACCGCACT | -0.138
129 | CAACAGGA | -0.146
130 | AATAACAG | 0.0632
131 | AGTCGAAG | 0.232
132 | CTACGGGA | 0.00368
133 | ATACCCGC | 0.0214
134 | ACCTCGCT | -0.00735
135 | ATGCTCTC | -0.229
136 | ACGTGGCG | -0.137
137 | CTTAAGGA | 0.132
138 | GTTCGAAC | 0.135
139 | AGGTGCGG | -0.17
140 | TATATAGA | 0.0693
141 | AAGACAGA | -0.0516
142 | AAACATTT | -0.0143
143 | GGTGCACA | -0.0555
144 | ATCGAAAG | 0.0511
145 | ATTCGCAC | -0.0924
146 | CGTTAGAC | -0.00028
147 | AGTATGAG | 0.208
148 | AGGCCGCG | -0.357
149 | CAAACTCG | 0.0844
150 | ACCGGAAT | -0.0986

Row | Sequence | PBM E-score
151 | GAACGGAA | -0.199
152 | CAAATGAG | 0.114
153 | GATAGAGA | -0.117
154 | CGGATGCC | -0.198
155 | AATATTGG | -0.227
156 | AGCCCGTC | -0.285
157 | AAAACGAA | 0.13
158 | AATGGTTG | 0.0168
159 | ACAGACGT | -0.226
160 | GCCACCCC | -0.122
161 | CATTGATA | -0.0103
162 | TGAAGTCA | 0.445
163 | CACATATA | 0.0408
164 | GCCTATTA | -0.223
165 | CACGACAG | -0.0297
166 | CCCTGGAC | -0.087
167 | CATGAACA | 0.0394
168 | AATTCTCC | -0.18
169 | ACCACTAA | 0.145
170 | AAGGTGGT | -0.153
171 | ACGACAAT | 0.0503
172 | ATTAGAGA | 0.0763
173 | CGAACAAG | -0.0422
174 | CCAGTCAG | 0.248
175 | GCATGATA | 0.116

Row | Sequence | PBM E-score
176 | AGTGTGTC | 0.05
177 | ACACCCGT | 0.0279
178 | GTCCGAAA | 0.0279
179 | GGGCTATA | -0.294
180 | CGCAAGGA | -0.167
181 | CGCGGAGC | -0.229
182 | GGTTTGAA | 0.0654
183 | CATAGTGC | -0.00185
184 | AAGTTAGC | 0.0512
185 | ATATTCCG | -0.0741
186 | TGTGCACA | -0.0367
187 | CCGTTAGA | 0.00036
188 | GCAGACGA | -0.0411
189 | ATACGACG | -0.0663
190 | CAACGTAG | -0.103
191 | CTGACCCA | 0.0335
192 | CGCTCTTA | -0.00424
193 | GCGGCACC | -0.357
194 | GCTGCGAC | 0.182
195 | GCAAGTTA | 0.0949
196 | CCCGTTGC | 0.101
197 | AACTGTTC | 0.0605
198 | GAAATCGC | -0.00281
199 | ACGCGCAG | -0.155
200 | CCCCCTAG | -0.265

Row | Sequence | PBM E-score
201 | CAATTCGG | -0.189
202 | CTGGAGAA | -0.204
203 | GATACCCC | -0.146
204 | ACTCATCT | 0.401
205 | AATCCAGC | -0.149
206 | CCTATGTC | -0.165
207 | CCACACTA | -0.0276
208 | AGCCCCAA | -0.0623
209 | TCATGCAA | 0.177
210 | CTGAATAC | -0.0534
211 | AAGTCGAT | 0.0107
212 | CAGAAAAG | 0.106
213 | AAATCTCC | -0.2
214 | CAGATAGG | -0.0964
215 | AGCGATAC | -0.106
216 | AACTCACT | 0.148
217 | TCCCCGCA | -0.0687
218 | CGGCTAGC | -0.139
219 | AGTCTTGG | 0.315
